Measured values: the supplement of paper PMC11417369
The other results are listed elsewhere or left out.

tested on: PfSIP2 AP2 domain 1 (GST-tagged); assay: gcPBM binding intensity (ln(normalized median fluorescence intensity)); higher = stronger DNA binding
Summary of the method: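 The highest Masliner-normalised natural-log median intensity across replicate spots of either probe orientation is reported as binding intensity. GST-tagged P. falciparum DNA-binding domains expressed in E. coli were applied for 1 h to an Agilent 4 × 180k array of primer-extended double-stranded 36-bp intergenic genomic probes plus negative controls, and bound protein was detected with Alexa488 anti-GST antibody and scanned at 488 nm.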

Sequence	gcPBM binding intensity (ln)
ATATATGTAGATATATGTACATATATAGGTAGATAT [XGTACX_site7589]	7.23
AAAAATTTATTTAAAAGTACATAAAATAAAGGTGGA [XGTACX_site7591]	7.4
ATTTTAGAATTTAATACACACAAAAAAAAAAAATTA [CACACA_site3704]	6.86
TATTACATTATATAAACATGCAAAACTATATATTAT [TGCATGCA_site601]	7.03
TATATATGTGTATAGAGTACACGTTTTTTTTAATAT [XGTACX_site3128]	6.94
AAAAACCTGAACTGTGCATGTCATACTTTTACTTTT [TGCATGCA_site73]	7.55
TAAATACATCTATGCACACAAAAAAATATATATTTT [CACACA_site5027]	7.76
TGTATAAACTTTACGTGTACATGAATAATCTATAAT [XGTACX_site3801]	7.12
AAAATGGAACTAGGAATAATATAAGAAGATAAAAGG [XGTACX_negctrl_site347]	7.3
TTGTACAAAAATAATGCACACTATATCAAGTTTTTT [CACACA_site5898]	7.33
TTTATAAATTCTCTTTTTAAAAAATATTTTTATACT [CACACA_negctrl_site427]	6.63
AAAATAATTTTATAAGTGCAAAATAGCTTATTTATA	7.75
TAATCATTTTAGCTTACACACAAAATTTTGTTATAA [CACACA_site2939]	6.93
TATACGTATTACAGAGTGCAATAAACAGTATATATT	7.92
GTAAAACAGATTTACAGTACACATGTGTTATGTTTT [XGTACX_site2933]	7.01
TTTTTATATTTTATTATTTTTTTTATATAAAAAATT [CACACA_negctrl_site601]	7.02
ATAAAAATATTTGAATGTACTTATAAGATATATATA [XGTACX_site4257]	7.15
TTTATATATAAATAATGTACAAAAAATTTTAAAAAG [XGTACX_site7990]	7.27
AAATCGTGCACGGACACATGCAGTAGCCGAGAATTA [TGCATGCA_site733]	8.89
TATTTTAATTTTTGTTGTACGCAAATGTGAGGGCAT [XGTACX_site4663]	7.4
TAAACCAAAAAAAGTAGTACAAATATTATAAAAAAA [XGTACX_site8497]	6.96
GATGTATTCATACATGCACACGTACATATTTAAATA [CACACA_site9299]	7.21

Sequence	gcPBM binding intensity (ln)
GTTCATAAATTAAACACACACACACGGCTGGATACC [CACACA_site7545]	7.35
AGGTAGAAAAAAGACACACACATTAGATATTTATAT [CACACA_site6313]	6.87
GTTCAAATTATTATGTGTACTAAAGAATATTTTAAA [XGTACX_site3166]	7
CTTTATTTTTTATACACACACAATATGTATTTATAT [CACACA_site5879]	7.35
TCTATTTTTTATATGGTGCATTGTTCTTATTAATAT [GTGCAC_site9392]	10.5
AGGAAAAATAATTATTCACACAATAAATATATTTGA [CACACA_site5824]	6.82
AATTAATTTATGTTACGTACATAAGTATTATATTTT [XGTACX_site388]	7.28
TATTAACACTTTATAGAAACAAAAAAATAAGCAAAA [XGTACX_negctrl_site295]	7.14
TTTGAATTTTTTAACACACACATGTGTGGATATATA [CACACA_site6872]	6.96
AAATTTATATAATATTGTACATTAAAAATTATATAT [XGTACX_site8009]	7.06
TGGGTAATACATAATACACACATGTATATGTCGCAT [CACACA_site1125]	6.8
AGTATATATACACAAGGGGAATACATATACAAAATT [TGCATGCA_negctrl_site244]	6.89
TTTTTAAAAAAGATAAGCGAAAGAATTAATTTTTAA [GTGCAC_negctrl_site197]	6.7
TATGTATAAATATATGCACACATATATATATTTATA [CACACA_site9150]	7.18
ATATATATAATAAACACACACATATACATATATGTA [CACACA_site3462]	7.6
AAGTTGTATATTGATTGTACTTGTTTAGGGTTATAG [XGTACX_site2953]	7.17
TATATATATATAATGTGTACACAAATATATATTATA [XGTACX_site8786]	9.24
AGGTAAAATATACATTGTACATATAATTAATTTATT [XGTACX_site626]	6.95
AATATAAATTAATTTACACACTAAAAAATATTTATA [CACACA_site7728]	7.09
ACATACTTTAATATATGTACATAAGAAAAAAAAAAA [XGTACX_site2991]	7.11
TATAAGAATGACAAGTGTACATATCAAATATATTAG [XGTACX_site7113]	6.93
TATTTTTTATATTTATTTATTTAAAGGAGCTTTTCT [GTGCAC_negctrl_site293]	6.67
